According to the RNAGym collection of RNA variant scans (doi:10.1101/gad.245936.114):
Variants at the background level are over-represented here.

B1: tRNA (parent)
chain: CUCUCGGUAGCCAAGUUGGUUUAAGGCGCAAGACUUUAAUUUAUCACUACGAAAUCUUGAGAUCGGGCGUUCGACUCGCCCCCGGGAGAUUUUUUCCUCGAGCAA

Variants of: B1
Assay: nonsense suppression (GFP-seq) (ratio to wild type); higher = more function; SUP4oc tRNA, yeast GFP reporter sort-seq
In short: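 Yeast carrying genome-integrated SUP4oc tRNA variants from a library with ~3% random mutations were grown in raffinose/galactose medium with 80 mg/L adenine. Each strain also carried a galactose-driven GFP ochre reporter and RFP. Cells were sorted into GFP/RFP bins, and each bin was Illumina-sequenced (phred ≥30). Nonsense suppression (GFPSEQ) is the bin median GFP/RFP, weighted by each variant's estimated cell share per bin, relative to wild-type SUP4oc; variants needed ≥100 reads and ≥30 cells.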

Nonsense suppression, ≤ 0.026:
CUCUCGGUAGCCAAGUUGGUUUUAGGCGCAAGACUUUAAUUUAUCACUACGAAAUCUUCAGAUCGGGCGUUCGACUCGCCCCCGGGAGAUUUUUUCCUCGAGCAA [A23U G59C]
CUCUCGGUAGCCAAGUUGGUUUUAGGCGCAAGACUUUAAUUUAUCACUACGAAAUCUUAAGAUCGGGCGUUCGACUCGCCCCCGGGAGAUUUUUUCCUCGAGCAA [A23U G59A]
CUCUCGGUAGCCAAGUUGGUUUUAGGCGCAAGACUUUAAUUUAUCACUACGAAAUCUUGAGAUCGGGCGUUAGACUGGCCCCCGGGAGAUUUUUUCCUCGAGCAA [A23U C72A C77G]
CUCUCGGUAGCCAAGUUGGUUUUAGGCGGAAGACUUUAAUUUAUCACUACGAAAUCUUGAGAUCGGGCGUUCGACUCGCCCCCGGGAGAUUUUUUCCUCGAGCAA [A23U C29G]
CUCUCGGUAGCCAAGUUGGUUUUAGGAGCAAUACUUUAAUUUAUCACUACGAAAUCUUGAGGUCGGGCGUUCGACUCGCCCCCGGGUGGUUUUUUCCUCGAGCAA [A23U C27A G32U A62G A87U A89G]
CUCUCGGUAGCCAAGUUGGUUUUAAGCGCAAGACGUUAAUUUAUCACUACGAAAUCUUGAGAUCGGGCGUUCGACUCGCCCCCGGGAGAUUUUUUCCUCGAGCAA [A23U G25A U35G]
CUCUCGGUAGCCAAGUUGGUUUUAGGCCCAAGACUUUAAUUUAUCACUACGAAAUCUUGAGAUCGGGCGUUCGACUCGCCCCCGGGAGAUUUUUUCCUCGAGCAA [A23U G28C]
CUCUCGGUAGCCAAGUUGGUUUUAGGCGCAAUACUUUAAUUUAUCACUACGAAAUCUUGAGAGCGGGAGAUCGCCUCGCCCCCGGGAGAUUUUUUCCUCGAGCAA [A23U G32U U63G C68A U70A A74C]
CUCUCGGUAGCCAAGUUGGUUUUAGGCGCAAGACUUUAAUUUAUCACUACGAAAUCUUGAGAUCAGCCGUUGUACUCGCCCCCGGGAGAUUUUUUCCUCGAGCAA [A23U G65A G67C C72G G73U]
CUCUCGGUAGCCAAGUUGGUUUUAGGCGCAAGACUUUAAUUUAUCACUACGAAAUCUUAAGAUCGGGCGUUCGUCUCGCCCCCGGGAGAUUUUUUCCUCGAGCAA [A23U G59A A74U]
CUCUCGGUAGCCAAGUUGGUUUUAGGCGCAAAACUUUAAUUUAUCACUACGAAAUCUUGAGAUCGGGCGGUCGACUCGCCCCCGGGAGAUUUUUUCCUCGAGCAA [A23U G32A U70G]
CUCUCGGUAGCCAAGUUGGUUUUAGGCUCAAGACUUUAAUUUAUCACUACGAAACCUUGAGAUCGGGCGUUCGACUCGCCCCCGGGAGAUUUUUUCCUCGAGCAA [A23U G28U U55C]
CUCUCGGUAGCCAAGUUGGUUUUAGGCGAAAGACUUUAAUUUAUCACUACGAAAUCUUGAGAUCGGGCGUUCGACUCGCCCCCGGUAGAUUUUUUCCUCGAGCAA [A23U C29A G86U]
CUCUCGGUAGCCAAGUUGGUUUUAGGCGCAAGACUUUAAUUUAUCACUACGAAAUCUUGAGAUCGGUCGUUCGACUCGCCCCCGGGAGAUUUUUUCCUCGAGCAA [A23U G67U]
CUCUCGGUAGCCAAGUUGGUUUUAGGCGCAAGACUUUAAUUUAUCACUACGAAAUAUUGAGAGCGGGCGUUCGACUCGCCCCCGGGAGAUUUUUUCCUCGAGCAA [A23U C56A U63G]
CUCUCGGUAGCCAAGUUGGUUUUAGGCUCAAGACUUUAAUUUAUCACUACGAAAUCUUGAGAUCGGGCGUUCGACUCCCCCCCGGGAGAUUUUUUCCUCGAGCAA [A23U G28U G78C]
CUCUCGGUAGCCAAGUUGGUUUUAGGCGCAAGACUUUAAUUUAUCACUACGAAAUCUUGAGAUCAGGCGUUCGACUCGCCCCCGGGACAUUUUUUCCUCGAGCAA [A23U G65A G88C]
CUCUCGGUAGCCAAGUUGGUUUUAAGCGCAAGACUUUAAUUUAUCACUACGAAAUCCUGAGAUCGGGCGUUCGACUCGCCGCCGGGAGAUUUUUUCCUCGAGCAA [A23U G25A U57C C81G]
CUCUCGGUAGCCAAGUUGGUUUUAGGCGCAAGACUUUAAUUUAUCACUACGAAAUCUUGAGAUCGGGCGUUCGACUCGCGCCCGGGAGAUUUUUUCCUCGAGCAA [A23U C80G]
CUCUCGGUAGCCAAGUUGGUUUUAGGCGCAAGACUUUAAUUUAUCACUACGAAAUCUUAAGAUCGGGCGUUCGACGCGCCCCCGGGAGAUUUUUUCCUCGAGCAA [A23U G59A U76G]
CUCUCGGUAGCCAAGUUGGUUUUAGGGGCAAGACUUUAAUUUAUCACUACGAAAUCUUGCGAACGGGCGUUCGACUCGCCCCCGGGAGAUUUUUUCCUCGAGCAA [A23U C27G A60C U63A]
CUCUCGGUAGCCAAGUUGGUUUUAGGCGCAAGAAUUUAAUUUAUCACUACGAAAUCUUGAGAUCGGGCGUUCGACUCGCCCCCGGGAGAUUUUUUCCUCGAGCAA [A23U C34A]
CUCUCGGUAGCCAAGUUGGUUUUAGGCGCAAGAGUUUAAUUUAUCACUACGAAAUCUUGAGAUCGGGCGUUCGACUCGCCCCCGGGAGAUUUUUUCCUCGAGCAA [A23U C34G]
CUCUCGGUAGCCAAGUUGGUUUUAGGCGCAAAACUUUAAUUUAUCACUACGAAAUCUUGAGAUCGGGCGUUGGACUCGCCCCCGGGAGAUUUUUUCCUCGAGCAA [A23U G32A C72G]
CUCUCGGUAGCCAAGUUGGUUUUAGGCGCAAGACUUUAAUUUAUCACUACGAAAUCUUGAGAUCGGGCGUUCCACUCGCCCCGGGGAGAUUUUUUCCUCGAGCAA [A23U G73C C83G]
CUCUCGGUAGCCAAGUUGGUUUUAGGCGCAAGACUUUAAUUUAUCACUACGAAAUCUUGAGAUCGGGCGUUCGACUCCCCCCCGGGUGAUUUUUUCCUCGAGCAA [A23U G78C A87U]
CUCUCGGUAGCCAAGUUGGUUUUAGGCGCAAGACUUUAAUUUAUCACUACGAAAUCUUGAGAUCGGGCGUUAGACUCGCCCCCGGGAGAUUUUUUCCUCGAGCAA [A23U C72A]
